This is an account of results in ChEMBL document CHEMBL1201862, “PubChem BioAssay data set” (2004).

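In this assay, cells in 96-well plates receive the compound at five concentrations for 48 hours. Endpoints are linearly interpolated between the surrounding concentrations. At the GI50, growth is halved.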 The source made the active and inactive calls. Rule as the data show it: active = GI50 up to about 1.1 µM and inactive = higher.

The test system of this experiment is NCI-H322M. Briefly: DTP human tumour cell line panel, 48 h.
For `O=C(CCN1CCCCC1CO)Nc1ccc2c(c1)C(=O)c1ccc(NC(=O)CCN3CCCCC3CO)cc1C2=O` (stereo unspecified), the GI50 is inactive: 7.06 µM.
To `COc1ccc2oc(=O)c(-c3nc4ccccc4o3)cc2c1` belongs inactive: > 100 µM.
Turning to `CN(C)CN1CSC(=S)N(CN(C)C)C1`, the GI50 is inactive: > 100 µM.
For the compound `O=C(O)CSc1ccc(N=C=S)cc1`, the GI50 is inactive: 81.1 µM.
As for `COc1ccc2c(c1)CCc1c-2nc2cc3c(cc2c1O)OCO3`, the GI50 is inactive: > 100 µM.
To `c1ccc2sc(SCCSc3nc4ccccc4s3)nc2c1` belongs inactive: > 100 µM; to `Oc1ccc(-c2ccccc2)nn1`, inactive: > 100 µM.
To `N=C1OC(CN2CCN(c3ccccc3)CC2)CN1C(=O)Nc1ccccc1` (stereo unspecified) belongs inactive: > 100 µM; to `Cc1ccc2c(c1)C(=O)c1[nH]c3ccc(F)cc3c1CO2`, inactive: 59.4 µM; to `CC1=C([S+]([O-])c2ccc(C)cc2)CCC2(CCCCO2)O1` (stereo unspecified), inactive: > 100 µM.
On to `Nc1nc(Nc2ccc(Cl)cc2)sc1C(=O)c1cccs1`, for which the GI50 is inactive: 16 µM.
Take `O=C(Nc1ccc(S(=O)(=O)N[C@@H](C(=O)O)c2ccccc2)cc1)c1ccc(F)cc1`: the GI50 was inactive: > 100 µM.
Turning to `CC(C)(C)C(=O)OCOP(=O)(OCOC(=O)C(C)(C)C)OCC1OC(n2ccc(=O)[nH]c2=O)C(N=[N+]=[N-])C1O` (stereo unspecified), the GI50 is inactive: 6.28 µM.
Next, `Cc1nc2c(c(=O)[nH]1)S/C(=C(/C#N)c1nc3ccccc3[nH]1)N2c1ccccc1`: inactive: > 100 µM; `O=[N+]([O-])c1ccc(-n2nnc(C3=NCCN3)c2-c2ccccc2)cc1`: inactive: > 100 µM.
Consider `O=C(CCCCCCCCC(=O)NN1C(=O)/C(=C\c2ccc(O)c(O)c2)SC1c1c(O)ccc2ccccc12)NN1C(=O)C(=Cc2ccc(O)c(O)c2)SC1c1c(O)ccc2ccccc12` (stereo unspecified), for which the GI50 is inactive: 3.01 µM.
Next, `Cn1c(COC(=O)NC2CCCCC2)c(COC(=O)NC2CCCCC2)c2ccc3cc(Cl)c(Cl)cc3c21`: inactive: 40.6 µM; `CCN(CC)CCCNc1c2c(Cl)cc(Cl)cc2nc2nc(O)nc(C)c12`: inactive: 69 µM.
Next, `CCN(CC)N1C(=O)[N-][N+](CC)(CC)C1=O`: inactive: > 100 µM.
Regarding `COC(=O)C1=C(C)NC2=C(C(=O)c3ccccc32)C1c1cn(-c2ccccc2)nc1-c1ccccc1` (stereo unspecified), the GI50 was inactive: > 100 µM.
To `CC(N)(CC(O)(C(F)(F)Cl)C(F)(F)Cl)C(=O)O` (stereo unspecified) belongs inactive: > 10 µM; to `CCC(O)CC1OC2(CCC1C)CC1OC(=O)/C=C\C(C)(O)C(O)C(C)C(O)C(OC3CC(OC)C(O)C(C)O3)C(O)C(C)(O)CCC/C=C/C3CC(C)COC3(O)CC(O2)C1C` (stereo unspecified), inactive: 26.3 µM.
Regarding `CC(Cc1ccc(O)cn1)(NC(=O)c1ccccc1)C(=O)O` (stereo unspecified), the GI50 was inactive: > 100 µM.
Next, `Clc1ccccc1/C=c1\nc(-c2ccccc2)n2c1nc1ccccc12`: inactive: 27.9 µM; `CN(C)CCN(c1ccccn1)c1ccccn1`: inactive: > 100 µM; `CC(=O)O[C@H]1CC[C@@]2(C)[C@@H](CC[C@@H]3[C@@H]2CC(=O)[C@@]2(C)[C@H]3C[C@@H]3CC(C)=CC(=O)[C@@H]32)C1`: inactive: 50.1 µM.
Consider `Clc1ccc(-c2nn3c(-c4ccncc4)nnc3s2)cc1`, for which the GI50 is inactive: > 100 µM.
To `CN(C)CCn1c(=O)nc2c3c(c([N+](=O)[O-])ccc31)Nc1ccc(O)cc1-2` belongs inactive: 3.86 µM.
For the compound `[N-]=[N+]=CC(=O)OC1CCc2ccccc21` (stereo unspecified), the GI50 is inactive: > 100 µM.
Next, `O=[N+]([O-])c1cccc(/C=N/N=c2\ccc3ccccc3[nH]2)c1O`: inactive: 1.77 µM.
To `COc1ccc(-n2c3c(c4cc(O)ccc42)C(=O)c2ccccc2C3=O)cc1` belongs inactive: 3.3 µM; to `COc1cc(OC)c2nc(C)c3c(c2c1)SCC3`, inactive: 23.6 µM; to `CC1CC(Nc2ccc(Br)cc2)N(C(=O)c2ccc(Br)cc2)O1` (stereo unspecified), inactive: > 10 µM.
To `CCn1c(CCl)nc2c1C(=O)c1ccccc1C2=O` belongs inactive: 3.48 µM; to `Cc1csc2c(=O)n(C3OC(CO)C(O)C3O)c(=O)[nH]c12` (stereo unspecified), inactive: > 100 µM.
For `CC[N+]1(C)CCC(O)(/C=C/c2ccc(OC)cc2)C(C(=O)/C=C/c2ccc(OC)cc2)C1` (stereo unspecified), the GI50 was inactive: 18.1 µM.
Turning to `COc1ccc(C(C)NNC(=O)c2ccncc2)c(OC)c1` (stereo unspecified), the GI50 is inactive: > 100 µM.
Next, `O=C(O)/C(Cl)=C(Cl)/C=N/NC(=O)c1cc2ccccc2cc1O`: inactive: 25.8 µM; `CCOC(=O)Cc1nc2c(N)ncnc2n1C1OC(COC(C)=O)C(OC(C)=O)C1OC(C)=O` (stereo unspecified): inactive: > 100 µM; `COc1ccc(/C=C2\CCC(Cc3ccccc3)(CN(C)C)C2=O)cc1` (stereo unspecified): inactive: > 100 µM.
Turning to `COC(=O)[C@]1(C)CCC[C@@]2(C)[C@@H]3C[C@@H]4[C@H]5C[C@@]3(CC[C@@H]21)C[C@@]45C`, the GI50 is inactive: 21.3 µM.
To `CCOC(=O)C(Cc1c(-c2[nH]c3ccccc3c2CC(NC(=O)CNC(C)=O)C(=O)OCC)[nH]c2ccccc12)NC(=O)CNC(C)=O` (stereo unspecified) belongs inactive: 82.6 µM; to `COC12OCCN(C)C1=CC(=O)C1N=NCC12` (stereo unspecified), inactive: > 100 µM; to `CC(=O)c1c2c(cc3c1CC1(Cc4cc5c(cc4C1)CCCC5)C3)CCCC2`, inactive: > 100 µM.
For the compound `CC(C)Oc1c(-c2ccc(F)cc2)c(O)c2c3c1oc(=O)n3C=CC2C` (stereo unspecified), the GI50 is inactive: 13.4 µM.
As for `COc1cc(C2C(Cl)C(=O)N2NC(=O)Cc2ccccc2)cc(Br)c1O` (stereo unspecified), the GI50 is inactive: > 100 µM.
Turning to `Cc1[nH]n(-c2nc(O)c(C)c(=O)[nH]2)c(=O)c1CCO`, the GI50 was inactive: > 100 µM.
Consider `CCCCCCOc1ccc(NC2=C(Cl)C(=O)c3ncccc3C2=O)cc1`, for which the GI50 is inactive: 1.99 µM.
To `Cc1nn(-c2ccccc2)c(C)c1/C=N/N=C1\S/C(=C\c2ccc(Cl)cc2)C(=O)N1c1ccccc1` belongs inactive: 45.5 µM.
In the case of `Cc1cc(C)c2c(-c3ccccc3)cc(=O)[nH]c2c1`, the GI50 was inactive: > 100 µM.
Next, `C[C@@H](C[C@@H](O)[C@H](O)C(C)(C)O)[C@H]1CC=C2[C@]3(C)[C@H](O)C[C@H]4C(C)(C)[C@H](O)CC[C@]4(C)[C@H]3CC[C@@]21C`: inactive: 14.8 µM.
Next, `CC[N+](C)(C)c1ccc(C(=C2C=CC(=[N+](C)C)C=C2)c2ccc(N(C)C)cc2)cc1`: inactive: 11.3 µM; `CC1=CC23C(COC(=O)C24CO4)C(C(=O)O)=CC3C1C` (stereo unspecified): inactive: 23.1 µM.
On to `CCOC(=O)C12CCCC1(O)N(NC(=O)OC)C(C)=C2C(=O)OC` (stereo unspecified), for which the GI50 is inactive: > 100 µM.
Next, `CC(=O)OCC1OC(Nc2ccc3nc(C)n(-c4cccc(C)c4)c(=O)c3c2)C(OC(C)=O)C(OC(C)=O)C1OC(C)=O` (stereo unspecified): inactive: > 62.5 µM.
To `COc1ccc2[nH]cc(CCNC(=O)[C@H](Cc3ccc(O)cc3)NC(=O)[C@@H](NCC(F)(F)F)C(C)C)c2c1` belongs inactive: > 100 µM; to `Cc1ccc(-n2c(=S)[nH]c3ccc(Br)cc3c2=O)cc1`, inactive: > 100 µM.
With `O=C1c2ccccc2-c2c1c1ccccc1c(=O)n2-c1cccnc1`, the GI50 was inactive: > 76.7 µM.
Regarding `CCN(CC)c1ccc(/C=C(\C#N)c2nc(N)nc(N3N=C(C)CC3(C)C)n2)cc1`, the GI50 was inactive: 26.3 µM.
To `OCCN(C1=NCCN1)/[N+](=C\c1ccccn1)[CH-]c1ccccn1` belongs inactive: > 100 µM.
Take `COc1ccc(NC(=O)c2cc(NC(=O)/C=C/c3ccccc3)c(OC)c(OC)c2)cc1`: the GI50 is inactive: 33 µM.
Next, `O=c1/c(=C/c2ccccc2F)sc2nc3ccccc3n12`: inactive: > 100 µM.
In the case of `O=C1CCC(c2ccc(Cl)cc2)=NN1c1nsc2ccccc12`, the GI50 is inactive: 34 µM.
Regarding `CC1=NN2C=Nc3c(c(-c4ccc(Cl)cc4)cn3-c3ccc(C)cc3)C2N1` (stereo unspecified), the GI50 was inactive: > 100 µM.
To `COc1ccc(/C(Cl)=C(\CNc2ccccn2)c2ccccc2)cc1OC` belongs inactive: > 100 µM; to `CC1=N/C(=C\c2ccc(C)cc2)C(=O)O1`, inactive: > 100 µM; to `C=CC[N+](CCO)(CCO)CCCCCCCCCCCCCCCCCC`, inactive: 11.5 µM.
Next, `COc1cccc(Nc2nc(C)c([N+](=O)[O-])c(Nc3cccc(OC)c3)n2)c1`: inactive: 27.6 µM; `COc1ccc2c(c1)CCC1C3(CCCC21C)OCCO3` (stereo unspecified): inactive: 19 µM.
In the case of `O=C(Nc1ccc(Cl)cc1Cl)C(=O)C(C(=O)c1ccncc1)C1OC(=O)c2ccccc21` (stereo unspecified), the GI50 was inactive: > 100 µM.
To `CCOC(=O)CCn1cnc(N)n1` belongs inactive: > 100 µM; to `Cc1ccc(S(=O)(=O)OI(O)CC(F)(F)F)cc1`, inactive: > 100 µM.
To `C#CCSc1nc(N)c2ncn(C3OC(CO)C(O)C3O)c2n1` (stereo unspecified) belongs inactive: > 100 µM; to `CCOC(=O)C1C(c2ccc(OC)cc2)c2c(nn(-c3ccccc3)c2O)CC1(C)O` (stereo unspecified), inactive: > 100 µM; to `CCN(CC)CCn1ncc2c3c(=O)c4cccnc4n(CCN(CC)CC)c3ccc21`, inactive: 6.52 µM.
To `O=S(=O)(c1ccccc1)c1ccc(/N=N/O)nc1` belongs inactive: > 100 µM; to `COc1ccc(Cc2nc3cc(Cl)ccc3o2)cc1`, inactive: 82.8 µM.
In the case of `CC(C)[Si](OCC1CC(C[C@H]2CC(C[C@H]3C[C@@H](CO[Si](C(C)C)(C(C)C)C(C)C)OC(C)(C)O3)OC(C)(C)O2)OC(C)(C)O1)(C(C)C)C(C)C` (stereo partly specified), the GI50 is inactive: > 100 µM.
To `Oc1cc(-c2ccccn2)nc2ccc(Cl)cc12` belongs inactive: 51.3 µM; to `CCCCCCCCCCCCn1[nH]c(C)c(C(=S)SCCCCCCCC)c1=O`, inactive: > 100 µM.
On to `C#CCOC(=O)c1ccccc1OC(C)=O`, for which the GI50 was inactive: > 100 µM.
